Experimental data reported in the supplement of paper PMC3334620.
In all, about 33,000 sequences were measured (“E-score (-0.5 to 0.5)”: median about -0.012, highest 2% from about 0.27 on). The list shows a part of the results.

molecular target: T1, Vhr1 (UniProt P40522); assay: PBM E-score (8-mer binding enrichment) (E-score (-0.5 to 0.5)); higher = stronger / more preferred TF binding; most listed sequences are background and not binding sites; conditions: protein concentration: 200 nM; construct: GST-full length
T1 sequence: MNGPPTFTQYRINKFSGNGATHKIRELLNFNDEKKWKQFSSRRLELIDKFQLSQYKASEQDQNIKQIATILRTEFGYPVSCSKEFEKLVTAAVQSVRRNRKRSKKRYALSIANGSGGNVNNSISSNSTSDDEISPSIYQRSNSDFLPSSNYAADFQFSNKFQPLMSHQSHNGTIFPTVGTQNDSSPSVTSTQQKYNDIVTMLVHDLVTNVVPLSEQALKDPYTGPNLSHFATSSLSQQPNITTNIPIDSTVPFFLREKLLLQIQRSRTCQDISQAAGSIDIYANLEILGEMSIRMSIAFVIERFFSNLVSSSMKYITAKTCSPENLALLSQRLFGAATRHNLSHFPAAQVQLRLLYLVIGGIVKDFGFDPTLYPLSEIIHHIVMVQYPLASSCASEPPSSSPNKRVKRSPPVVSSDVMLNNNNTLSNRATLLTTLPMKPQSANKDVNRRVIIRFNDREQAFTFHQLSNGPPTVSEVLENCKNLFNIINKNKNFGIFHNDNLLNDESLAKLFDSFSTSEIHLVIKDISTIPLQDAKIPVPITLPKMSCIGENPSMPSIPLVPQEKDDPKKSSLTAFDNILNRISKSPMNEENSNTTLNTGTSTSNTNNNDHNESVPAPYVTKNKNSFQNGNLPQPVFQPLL
In short: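 Universal all-10-mer Agilent arrays, fresh or stripped once, were converted to double-stranded form by primer extension. GST-tagged yeast transcription factors from PURExpress in vitro transcription/translation, full-length or DNA-binding domain only, were applied at about 100-200 nM and detected with fluorescent anti-GST. After masliner normalisation, the Universal PBM Analysis Suite scored each ungapped eight-base word together with its reverse complement by E-score.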

Sequence	PBM E-score
ATACAGGG	0.164
ATACGCGA	0.155
CCAGCTAG	-0.114
AGAAGAAG	-0.203
CTCAGGCA	0.156
CCTGTGCC	-0.158
GATAGCGA	-0.0453
ATACCGCA	0.222
CTGGTCCA	-0.00784
GAGTTTCA	0.0998
CCACGCGC	-0.229
GCGTGTAC	0.0816
CCGTTGTA	0.119
GATTTCGC	0.16
AGTGACCC	0.133
ATTGATCA	-0.0296
AATATCGC	0.0441
CGCGATTA	0.162
CCCAAACA	0.145
GCAGCTAC	-0.0936
AAGATTTA	-0.0338
CGCCTAAA	-0.149
AGGTCAGC	-0.0461
CCCATGCG	-0.0165
TATATCAA	0.116

Sequence	PBM E-score
CACGCAGC	0.0559
ATAGATCG	-0.0167
AATACTTG	-0.0248
AGTACGTC	0.13
CAAGTTAG	-0.00247
CTCTAAAA	-0.188
AGGGTATC	-0.0208
AACACGTC	-0.151
AACAACCT	-0.117
CCGCCACA	0.185
CTTTTTCC	-0.26
AGATATAT	0.131
CGCCAACC	-0.156
GGTAGAAA	-0.205
GCATCTCC	0.0271
ACACTCTC	0.223
AGCGAAAC	0.0638
CGGTAGAG	-0.0875
CGGCCCGC	0.0634
AGGCTGGC	0.00081
AGAAGCCT	-0.216
GAGGTCGA	0.0606
GTGGATAA	-0.0412
AAACAACG	-0.00681
AGGCCTTG	-0.23

Sequence	PBM E-score
GCCGTCGA	0.0723
TCACCCAA	0.177
CAACCACC	0.00878
GGCTCCCA	-0.16
ATTGCCGC	-0.0756
ATGGAGGG	0.111
AAGATGGG	-0.0481
CGTTCTAA	-0.00665
AAAATATC	0.0289
AGAATAAC	0.0187
CGGTACAA	-0.0176
AGTCCATG	0.132
ACCTGAAC	-0.052
GCTGATCC	0.142
AGTACTCA	0.171
GTACCGGA	-0.00911
GGGGGTTA	-0.147
CCGGGATA	0.00258
CGCCGTCC	-0.263
CTATGTGC	0.108
CGGGCGAC	0.107
AGTCGTGA	0.184
CCGGTCTC	-0.00313
AGCATGCG	0.0279
ACTAGAGA	-0.191

Sequence	PBM E-score
CAAGTGTA	0.0223
GCGCGCAA	0.3
CTACTATA	0.168
ACAAGGAA	-0.00062
ACAATCCC	0.166
AAGTTGGT	0.117
AGCACTTG	-0.155
GACTGGTA	0.24
AAACGCAG	-0.0854
AAGTTCAG	-0.194
CGCTGACC	0.0181
AGTTAAGA	-0.0696
ACCTTCCC	0.0308
CTAGCACC	0.103
GGGGTTAC	-0.154
CTTGGACC	-0.22
CGGGAATA	-0.0266
AGCAGAAC	-0.00038
GACCATAC	0.0781
GGCGACCC	0.0702
CGTATTGC	-0.15
ACGTTGGC	-0.0923
GAGGGGCC	-0.0885
CTCCGCCA	-0.0746
CGATCCCG	0.0117

Sequence	PBM E-score
TATGGTGA	0.112
GGGACCAA	0.0312
GCTCAGCC	0.101
CAAACTAA	0.102
AAGGATTC	-0.0556
CCTTACAA	-0.27
AGTAGTAG	0.0116
AATATACT	0.0364
ACTTGCCC	-0.11
ATAGCCCA	0.0143
CCCCGCGA	0.171
CCCTGACA	0.0436
CGGAGGTC	0.0655
TACAACGA	0.0506
CAATTTGA	-0.15
GAGGACAA	-0.189
AGCGTGGC	-0.144
CTGTCGGC	0.0952
CCAGCTGC	-0.105
GATTTGAC	0.037
AATCTATG	0.0433
ATAAGCTC	-0.0861
ACACGCTG	0.0188
CGAAACCC	-0.0543
CATAGTTA	-0.0405

Sequence	PBM E-score
ACTTCGCT	0.0552
ATGGATGA	0.203
ACCTAGTC	0.0861
AGGGCTAT	-0.308
TCACATCA	0.158
CCTCATGA	0.0599
GACCACCC	-0.0289
TACACGAA	0.171
ATCCGTTG	0.138
AACGTATG	-0.067
ACCACCCG	-0.0147
CGGGAGAA	0.0467
AGGAGTTA	-0.0467
TACGGGAA	-0.209
CAAGAGGG	-0.222
AAATTACG	-0.102
ACGAACTG	-0.0868
AGGGATGC	-0.319
ACTATGAC	0.286
ATTTGTCG	0.0724
CCTATCCA	-0.0395
CCGGAGCC	0.137
ATACGATA	0.136
GCCTGGCC	-0.13
ACCTTGAA	-0.103

Sequence	PBM E-score
GACTATGC	0.233
AAGCCTTG	-0.11
ACGTAAGT	-0.132
CTCCGACA	0.0494
ACTCTTGG	0.0846
AGGCTCTA	-0.332
CCCATCGG	0.0695
TCAAGAGA	-0.256
ATCGCTCC	-0.234
AGTCATCC	0.464
CATAAGGA	-0.0229
GCGCGTAC	0.0989
CAGCCCGG	0.0685
ATAGGGTG	0.0417
GTTGGATA	-0.0148
TCATATCA	0.104
CCATCCAC	0.185
AACTGATC	0.157
CCGCAACG	0.0883
ATTATCAA	0.193
ACTAATCA	0.18
CAATTTCG	-0.102
